{"sequences": {"note": "The chains behind the UniProt entries cited, without tags or fusion partners. Where a name states a change or a piece, a line headed by the entry shows the natural chain unless it says otherwise. Residues count along the entry.", "UniProt Q04338, residues 1-194": "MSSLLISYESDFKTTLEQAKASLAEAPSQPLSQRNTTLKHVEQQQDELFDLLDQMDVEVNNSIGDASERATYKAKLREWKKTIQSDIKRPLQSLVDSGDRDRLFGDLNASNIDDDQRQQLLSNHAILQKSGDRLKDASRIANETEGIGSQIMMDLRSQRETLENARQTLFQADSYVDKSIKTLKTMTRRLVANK", "UniProt Q01590, residues 170-319": "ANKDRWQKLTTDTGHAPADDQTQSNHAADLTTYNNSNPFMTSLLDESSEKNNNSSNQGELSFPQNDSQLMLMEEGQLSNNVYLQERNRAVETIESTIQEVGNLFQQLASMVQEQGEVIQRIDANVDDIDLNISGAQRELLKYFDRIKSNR", "UniProt P25385": "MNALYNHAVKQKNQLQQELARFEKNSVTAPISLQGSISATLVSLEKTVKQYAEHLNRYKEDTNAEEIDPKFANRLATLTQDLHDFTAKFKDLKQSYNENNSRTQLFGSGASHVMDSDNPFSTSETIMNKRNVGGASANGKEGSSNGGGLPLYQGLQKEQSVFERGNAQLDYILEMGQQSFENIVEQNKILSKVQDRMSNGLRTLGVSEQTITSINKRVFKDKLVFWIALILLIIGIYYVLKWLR", "UniProt P22214, residues 1-188": "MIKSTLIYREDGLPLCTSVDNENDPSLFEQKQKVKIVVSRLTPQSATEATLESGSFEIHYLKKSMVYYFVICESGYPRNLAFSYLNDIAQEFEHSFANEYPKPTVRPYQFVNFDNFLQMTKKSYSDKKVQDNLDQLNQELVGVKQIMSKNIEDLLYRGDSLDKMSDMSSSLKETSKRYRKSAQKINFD", "UniProt P20795": "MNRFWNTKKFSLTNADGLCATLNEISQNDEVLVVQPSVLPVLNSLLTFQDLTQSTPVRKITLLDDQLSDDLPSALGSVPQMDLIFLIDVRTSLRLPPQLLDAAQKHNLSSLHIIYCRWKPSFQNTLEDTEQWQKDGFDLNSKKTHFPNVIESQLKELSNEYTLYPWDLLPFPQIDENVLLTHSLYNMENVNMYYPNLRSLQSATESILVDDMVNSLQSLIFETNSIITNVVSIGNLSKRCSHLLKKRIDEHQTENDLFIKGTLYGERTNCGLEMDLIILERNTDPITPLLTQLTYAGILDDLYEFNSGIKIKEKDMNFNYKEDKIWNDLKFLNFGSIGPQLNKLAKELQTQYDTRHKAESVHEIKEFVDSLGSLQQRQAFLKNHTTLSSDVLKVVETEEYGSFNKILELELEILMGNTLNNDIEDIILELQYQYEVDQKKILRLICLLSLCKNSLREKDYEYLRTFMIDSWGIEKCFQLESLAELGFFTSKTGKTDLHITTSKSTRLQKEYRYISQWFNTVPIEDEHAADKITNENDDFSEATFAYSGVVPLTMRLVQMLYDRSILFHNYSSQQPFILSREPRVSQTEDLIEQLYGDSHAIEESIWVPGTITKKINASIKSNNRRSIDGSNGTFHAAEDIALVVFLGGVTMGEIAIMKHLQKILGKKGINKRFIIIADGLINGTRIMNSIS"}, "source": "paper PMC4060006", "about": "“SM proteins Sly1 and Vps33 co-assemble with Sec17 and SNARE complexes to oppose SNARE disassembly by Sec18” (eLife, 2014)", "key": {"[1]": {"target": "T1, Sec17–vacuole SNARE complex (Sec17 bound to the vacuole SNARE complex on Vam3-GST) (S. cerevisiae) (UniProt Q12241+Q04338+P32912+Q12255+P32602)", "experiment": "pull-down; SNARE complex (500 nM) immobilised through its GST-tagged Qa-SNARE; Sec17 (20 µM), SM (Vps33 2.5 µM or Sly1 10 µM) or both, 1 hr at 30°C in SM Assay Buffer (some with 1 mM ATP, 2 mM MgCl2); washed three times, glutathione elution, SDS-PAGE, Coomassie; both purified"}, "[2]": {"target": "T1, Sec17–vacuole SNARE complex (Sec17 bound to the vacuole SNARE complex on Vam3-GST) (S. cerevisiae)", "experiment": "pull-down; across temperatures (4°, 24°, 30°C and a finer range), 60 min; immobilised SNARE complex or GST-Sed5FL (500 nM); Sly1 6-12 µM, Vps33 1-1.5 µM, Sec17 2-20 µM; Coomassie or SYPRO Ruby with standard curves; both purified"}, "[3]": {"target": "T1, Sec17–vacuole SNARE complex (Sec17 bound to the vacuole SNARE complex on Vam3-GST) (S. cerevisiae)", "experiment": "pull-down; Sec17 pre-bound to immobilised SNARE complex 60 min at 30°C, unbound Sec17 washed out, then SM (Vps33 2.5 µM or Sly1 10 µM) for 60 min at 30°C; Coomassie; both purified"}, "[4]": {"target": "GST-Sed5 SNARE domain (aa170-319) (S. cerevisiae) (UniProt Q01590)", "experiment": "condition: only at the low concentrations of free SNAREs liberated by disassembly, 30 min; pull-down; re-assembly without added SNAREs: SNARE complexes (500 nM) disassembled 30 min at 30°C by Sec17, Sec18 and ATP, quenched with 10 mM EDTA, further 30 min at 30°C, with or without SM; both purified"}, "[5]": {"target": "T2, Vam3-GST (cytoplasmic domain of Vam3, aa1-264) (S. cerevisiae) (UniProt Q12241)", "T2 sequence": "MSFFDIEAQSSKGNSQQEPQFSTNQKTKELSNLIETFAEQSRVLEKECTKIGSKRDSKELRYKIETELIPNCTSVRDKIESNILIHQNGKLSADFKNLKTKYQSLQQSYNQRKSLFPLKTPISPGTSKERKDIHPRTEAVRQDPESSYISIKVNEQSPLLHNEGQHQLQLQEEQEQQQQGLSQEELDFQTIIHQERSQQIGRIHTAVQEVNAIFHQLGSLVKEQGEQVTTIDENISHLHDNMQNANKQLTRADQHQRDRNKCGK", "experiment": "condition: only at the low concentrations of free SNAREs liberated by disassembly, 30 min; pull-down; re-assembly without added SNAREs: SNARE complexes (500 nM) disassembled 30 min at 30°C by Sec17, Sec18 and ATP, quenched with 10 mM EDTA, further 30 min at 30°C, with or without SM; both purified"}, "[6]": {"target": "T3, Sec17–Golgi SNARE complex (Sec17 bound to the Golgi SNARE complex on GST-Sed5 SNARE domain) (S. cerevisiae) (UniProt Q01590+P25385+P22804+P22214+P32602)", "experiment": "pull-down; complexes formed 60 min at 30°C on immobilised Golgi SNARE complex (Sec17 20 µM, Sly1 10 µM), unbound washed out, resin kept a further 60 min in SM Assay Buffer at 4° or 30°C, washed again; Coomassie; both purified"}, "[7]": {"target": "T3, Sec17–Golgi SNARE complex (Sec17 bound to the Golgi SNARE complex on GST-Sed5 SNARE domain) (S. cerevisiae)", "experiment": "pull-down; SNARE complex (500 nM) immobilised through its GST-tagged Qa-SNARE; Sec17 (20 µM), SM (Vps33 2.5 µM or Sly1 10 µM) or both, 1 hr at 30°C in SM Assay Buffer (some with 1 mM ATP, 2 mM MgCl2); washed three times, glutathione elution, SDS-PAGE, Coomassie; both purified"}, "[8]": {"target": "T3, Sec17–Golgi SNARE complex (Sec17 bound to the Golgi SNARE complex on GST-Sed5 SNARE domain) (S. cerevisiae)", "experiment": "pull-down; Sec17 pre-bound to immobilised SNARE complex 60 min at 30°C, unbound Sec17 washed out, then SM (Vps33 2.5 µM or Sly1 10 µM) for 60 min at 30°C; Coomassie; both purified"}, "[9]": {"target": "T3, Sec17–Golgi SNARE complex (Sec17 bound to the Golgi SNARE complex on GST-Sed5 SNARE domain) (S. cerevisiae)", "experiment": "pull-down; across temperatures (4°, 24°, 30°C and a finer range), 60 min; immobilised SNARE complex or GST-Sed5FL (500 nM); Sly1 6-12 µM, Vps33 1-1.5 µM, Sec17 2-20 µM; Coomassie or SYPRO Ruby with standard curves; both purified"}, "[10]": {"target": "binary complex of Sly1 and GST-Sed5 full cytoplasmic domain (S. cerevisiae) (UniProt Q01590+P22213)", "experiment": "pull-down; full cytoplasmic domain of Sed5 (GST-Sed5FL, 500 nM) immobilised without assembled SNARE complex; Sly1 (10 µM) and Sec17; 30°C; Coomassie; both purified"}, "[11]": {"target": "T4, Sly1 (full length, aa1-667) (S. cerevisiae) (UniProt P22213)", "T4 sequence": "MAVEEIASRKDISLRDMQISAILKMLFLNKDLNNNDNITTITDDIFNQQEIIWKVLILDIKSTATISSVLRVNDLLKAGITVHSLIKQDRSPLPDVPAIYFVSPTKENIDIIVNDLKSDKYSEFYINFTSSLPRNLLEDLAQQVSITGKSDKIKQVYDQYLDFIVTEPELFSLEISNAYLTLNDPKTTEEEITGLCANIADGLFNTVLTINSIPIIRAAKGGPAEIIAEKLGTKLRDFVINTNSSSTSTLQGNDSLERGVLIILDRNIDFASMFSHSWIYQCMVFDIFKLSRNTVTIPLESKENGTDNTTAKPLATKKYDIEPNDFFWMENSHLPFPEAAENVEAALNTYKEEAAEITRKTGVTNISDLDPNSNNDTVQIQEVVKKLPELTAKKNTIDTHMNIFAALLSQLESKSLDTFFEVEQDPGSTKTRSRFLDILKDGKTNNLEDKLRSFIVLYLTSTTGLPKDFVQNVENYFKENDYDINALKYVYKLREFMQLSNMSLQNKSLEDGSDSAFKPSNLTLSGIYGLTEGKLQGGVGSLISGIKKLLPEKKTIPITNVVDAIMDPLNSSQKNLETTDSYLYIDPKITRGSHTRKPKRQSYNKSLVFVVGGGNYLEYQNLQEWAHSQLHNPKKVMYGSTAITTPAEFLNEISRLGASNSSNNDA", "experiment": "pull-down; full cytoplasmic domain of Sed5 (GST-Sed5FL, 500 nM) immobilised without assembled SNARE complex; Sly1 (10 µM) and Sec17; 30°C; Coomassie; both purified"}}, "note": "Results are given in words; binding and its absence hold for the method and conditions named. Some entries that bind do so weakly or less than the wild type. For some assays here: Where a sequence is shown, tags or fusion partners need not be part of it."}
{"molecule": "Vps33 (from UniProt P20795 1-691)", "values": [{"measurement": "binding", "setting": "[1]", "value": "binds"}, {"measurement": "binding", "setting": "[2]", "value": "binds"}, {"measurement": "binding", "setting": "[3]", "value": "binds"}]}
{"molecule": "His6-Sec22 (soluble domain, aa1-188) (from UniProt P22214 1-188) (domain or fragment)", "values": [{"measurement": "binding", "setting": "[4]", "value": "no binding"}]}
{"molecule": "His7-MBP-Vti1 (soluble domain, aa1-194) (from UniProt Q04338 1-194) (domain or fragment)", "values": [{"measurement": "binding", "setting": "[5]", "value": "no binding"}]}
{"molecule": "Sly1 (full length, aa1-667) (natural protein, S. cerevisiae, UniProt P22213 1-666, looked up, Sly1, Golgi SM protein, S. cerevisiae, printed as full-length aa1-667; construct His6-(tev)-Sly1; as I recall the UniProt entry has 666 residues; the printed 667 may count the stop codon; also called His6-Sly1; Golgi SM protein; source: E. coli (pRIL plasmid), purified (Ni-NTA)) MAVEEIASRKDISLRDMQISAILKMLFLNKDLNNNDNITTITDDIFNQQEIIWKVLILDIKSTATISSVLRVNDLLKAGITVHSLIKQDRSPLPDVPAIYFVSPTKENIDIIVNDLKSDKYSEFYINFTSSLPRNLLEDLAQQVSITGKSDKIKQVYDQYLDFIVTEPELFSLEISNAYLTLNDPKTTEEEITGLCANIADGLFNTVLTINSIPIIRAAKGGPAEIIAEKLGTKLRDFVINTNSSSTSTLQGNDSLERGVLIILDRNIDFASMFSHSWIYQCMVFDIFKLSRNTVTIPLESKENGTDNTTAKPLATKKYDIEPNDFFWMENSHLPFPEAAENVEAALNTYKEEAAEITRKTGVTNISDLDPNSNNDTVQIQEVVKKLPELTAKKNTIDTHMNIFAALLSQLESKSLDTFFEVEQDPGSTKTRSRFLDILKDGKTNNLEDKLRSFIVLYLTSTTGLPKDFVQNVENYFKENDYDINALKYVYKLREFMQLSNMSLQNKSLEDGSDSAFKPSNLTLSGIYGLTEGKLQGGVGSLISGIKKLLPEKKTIPITNVVDAIMDPLNSSQKNLETTDSYLYIDPKITRGSHTRKPKRQSYNKSLVFVVGGGNYLEYQNLQEWAHSQLHNPKKVMYGSTAITTPAEFLNEISRLGASNSSNNDA", "values": [{"measurement": "binding", "setting": "[6]", "value": "binds"}, {"measurement": "binding", "setting": "[7]", "value": "binds"}, {"measurement": "binding", "setting": "[8]", "value": "binds"}, {"measurement": "binding", "setting": "[9]", "value": "binds"}]}
{"molecule": "Sec17 (natural protein, S. cerevisiae, UniProt P32602 1-292, looked up, Sec17, S. cerevisiae; construct CBD-(intein)-Sec17 in pTYB12; an intein tag is as a rule cut off during purification; also called α-SNAP homolog; Sec18 adapter; source: E. coli (pRIL plasmid), purified) MSDPVELLKRAEKKGVPSSGFMKLFSGSDSYKFEEAADLCVQAATIYRLRKELNLAGDSFLKAADYQKKAGNEDEAGNTYVEAYKCFKSGGNSVNAVDSLENAIQIFTHRGQFRRGANFKFELGEILENDLHDYAKAIDCYELAGEWYAQDQSVALSNKCFIKCADLKALDGQYIEASDIYSKLIKSSMGNRLSQWSLKDYFLKKGLCQLAATDAVAAARTLQEGQSEDPNFADSRESNFLKSLIDAVNEGDSEQLSEHCKEFDNFMRLDKWKITILNKIKESIQQQEDDLL", "values": [{"measurement": "binding", "setting": "[10]", "value": "no binding"}, {"measurement": "binding", "setting": "[11]", "value": "no binding"}]}
{"molecule": "His6-GFP-Vam7 SNARE domain (aa190-316) (domain or fragment, S. cerevisiae, UniProt P32912 190-316, looked up, Vam7, vacuole Qc-SNARE, S. cerevisiae, SNARE domain aa190-316; also called vacuole Qc-SNARE; source: E. coli (pRIL plasmid), purified (Ni-NTA); not shown: His6, N-terminal, kept; GFP (A207K), N-terminal, kept) PSTEVTRRAALLRSLLKECDDIGTANIAQDRGRLLGVATSDNSSTTEVQGRTNNDLQQGQMQMVRDQEQELVALHRIIQAQRGLALEMNEELQTQNELLTALEDDVDNTGRRLQIANKKARHFNNSA", "values": [{"measurement": "binding", "setting": "[5]", "value": "no binding"}]}
{"molecule": "His6-Nyv1 (soluble domain, aa1-231) (domain or fragment, S. cerevisiae, UniProt Q12255 1-231, looked up, Nyv1, vacuole R-SNARE, S. cerevisiae, soluble domain aa1-231; also called vacuole R-SNARE; source: E. coli (pRIL plasmid), purified (Ni-NTA); not shown: His6, N-terminal, kept) MKRFNVSYVEVIKNGETISSCFQPFQKNENYGTITSANEQITPVIFHNLIMDMVLPKVVPIKGNKVTKMSMNLIDGFDCFYSTDDHDPKTVYVCFTLVDMPKILPIRILSGLQEYESNATNELLSSHVGQILDSFHEELVEYRNQTLNSSGNGQSSNGNGQNTISDIGDATEDQIKDVIQIMNDNIDKFLERQERVSLLVDKTSQLNSSSNKFRRKAVNIKEIMWWQKVKN", "values": [{"measurement": "binding", "setting": "[5]", "value": "no binding"}]}
{"molecule": "His7-MBP-Bet1 (soluble domain, aa1-123) (domain or fragment, S. cerevisiae, UniProt P22804 1-123, looked up, Bet1, Golgi Qc-SNARE, S. cerevisiae, soluble domain aa1-123; also called Golgi Qc-SNARE; source: E. coli (pRIL plasmid), purified (Ni-NTA); not shown: His7, N-terminal, kept; MBP, N-terminal, kept) MSSRFAGGNAYQRDTGRTQLFGPADGSNSLDDNVSSALGSTDKLDYSQSTLASLESQSEEQMGAMGQRIKALKSLSLKMGDEIRGSNQTIDQLGDTFHNTSVKLKRTFGNMMEMARRSGISIK", "values": [{"measurement": "binding", "setting": "[4]", "value": "no binding"}]}
